Test results: article PMC5680924
No constants are given. Whether binding was seen depends on the method and setting. In cells and extracts the contact can be indirect. Some binding calls cover weakened binding; strength is not graded here. For some of these results: Sequences can lack the tags named with a protein.

Amino acid sequences for entries named in this document (tags omitted).
UniProt O00429: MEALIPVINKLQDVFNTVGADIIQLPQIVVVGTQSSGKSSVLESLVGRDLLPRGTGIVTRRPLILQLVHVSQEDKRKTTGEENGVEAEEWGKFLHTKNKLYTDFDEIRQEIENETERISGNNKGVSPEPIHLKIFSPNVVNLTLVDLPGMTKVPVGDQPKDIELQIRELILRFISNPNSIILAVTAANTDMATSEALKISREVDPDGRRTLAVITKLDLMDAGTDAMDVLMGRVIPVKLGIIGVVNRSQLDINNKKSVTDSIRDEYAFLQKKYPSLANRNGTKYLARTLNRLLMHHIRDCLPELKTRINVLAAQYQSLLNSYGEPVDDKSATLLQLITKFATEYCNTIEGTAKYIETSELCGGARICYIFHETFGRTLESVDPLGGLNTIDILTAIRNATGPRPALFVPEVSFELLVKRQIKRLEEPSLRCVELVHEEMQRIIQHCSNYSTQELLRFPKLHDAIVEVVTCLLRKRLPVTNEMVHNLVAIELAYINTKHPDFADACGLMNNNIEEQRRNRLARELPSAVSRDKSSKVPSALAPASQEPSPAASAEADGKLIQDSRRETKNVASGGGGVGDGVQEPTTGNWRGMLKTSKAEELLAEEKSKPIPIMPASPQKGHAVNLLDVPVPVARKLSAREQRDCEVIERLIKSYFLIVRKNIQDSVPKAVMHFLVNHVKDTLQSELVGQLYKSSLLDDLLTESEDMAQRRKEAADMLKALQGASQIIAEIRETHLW

T1: IFN-γ-induced endogenous GBP2 (human (endogenous in MDA-MB-231)) (UniProt P32456)
T1 sequence: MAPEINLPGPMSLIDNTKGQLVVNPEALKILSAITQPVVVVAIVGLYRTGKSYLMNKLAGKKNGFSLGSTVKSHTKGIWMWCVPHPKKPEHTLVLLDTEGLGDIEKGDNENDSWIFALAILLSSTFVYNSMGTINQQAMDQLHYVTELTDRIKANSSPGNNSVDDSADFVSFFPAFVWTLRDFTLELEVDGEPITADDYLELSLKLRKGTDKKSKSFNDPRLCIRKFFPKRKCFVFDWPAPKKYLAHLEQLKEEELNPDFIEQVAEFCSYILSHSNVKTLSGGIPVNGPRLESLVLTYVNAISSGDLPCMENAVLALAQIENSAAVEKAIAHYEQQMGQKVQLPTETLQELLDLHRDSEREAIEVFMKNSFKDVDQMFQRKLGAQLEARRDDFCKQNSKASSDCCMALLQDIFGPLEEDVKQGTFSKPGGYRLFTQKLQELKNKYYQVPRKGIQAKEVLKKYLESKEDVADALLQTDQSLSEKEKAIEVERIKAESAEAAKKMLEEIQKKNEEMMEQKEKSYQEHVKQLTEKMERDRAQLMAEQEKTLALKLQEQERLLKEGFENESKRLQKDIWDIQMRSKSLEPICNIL

T2: GST-tagged GBP2 (human) (UniProt P32456)
T2 sequence: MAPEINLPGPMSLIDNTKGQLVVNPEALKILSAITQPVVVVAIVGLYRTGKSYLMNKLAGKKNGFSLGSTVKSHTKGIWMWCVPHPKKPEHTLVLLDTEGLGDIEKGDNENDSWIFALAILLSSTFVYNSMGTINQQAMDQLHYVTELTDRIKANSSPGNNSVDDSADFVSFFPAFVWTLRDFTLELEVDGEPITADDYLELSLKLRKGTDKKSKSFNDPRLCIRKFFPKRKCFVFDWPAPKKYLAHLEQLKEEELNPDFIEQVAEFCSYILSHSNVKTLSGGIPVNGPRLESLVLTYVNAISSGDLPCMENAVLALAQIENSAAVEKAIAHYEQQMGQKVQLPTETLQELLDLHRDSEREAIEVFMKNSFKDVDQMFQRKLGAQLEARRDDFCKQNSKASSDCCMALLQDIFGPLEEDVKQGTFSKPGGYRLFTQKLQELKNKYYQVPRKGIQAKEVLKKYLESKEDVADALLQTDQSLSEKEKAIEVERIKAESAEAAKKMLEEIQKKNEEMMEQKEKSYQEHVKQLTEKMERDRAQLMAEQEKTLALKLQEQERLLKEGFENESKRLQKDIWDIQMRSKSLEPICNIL

T3: Flag-tagged guanylate-binding protein 2 (GBP2) (human) (UniProt P32456)
T3 sequence: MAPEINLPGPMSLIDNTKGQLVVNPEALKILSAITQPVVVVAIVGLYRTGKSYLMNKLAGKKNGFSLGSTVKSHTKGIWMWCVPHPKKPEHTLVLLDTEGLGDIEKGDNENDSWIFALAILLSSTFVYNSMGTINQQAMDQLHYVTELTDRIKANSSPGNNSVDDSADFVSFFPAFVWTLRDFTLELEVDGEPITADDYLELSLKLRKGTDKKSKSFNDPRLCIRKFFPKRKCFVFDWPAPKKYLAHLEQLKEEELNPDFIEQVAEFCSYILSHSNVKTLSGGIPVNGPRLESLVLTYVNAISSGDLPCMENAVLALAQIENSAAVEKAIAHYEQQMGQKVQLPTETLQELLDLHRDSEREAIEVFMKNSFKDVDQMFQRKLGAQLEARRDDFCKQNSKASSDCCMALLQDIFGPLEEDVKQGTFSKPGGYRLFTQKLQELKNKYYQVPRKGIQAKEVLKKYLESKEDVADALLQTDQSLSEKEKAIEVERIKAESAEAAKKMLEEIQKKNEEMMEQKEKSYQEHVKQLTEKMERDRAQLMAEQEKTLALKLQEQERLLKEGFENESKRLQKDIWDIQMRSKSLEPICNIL

T4: Flag-GBP2^K51A (human) (UniProt P32456)
T4 sequence: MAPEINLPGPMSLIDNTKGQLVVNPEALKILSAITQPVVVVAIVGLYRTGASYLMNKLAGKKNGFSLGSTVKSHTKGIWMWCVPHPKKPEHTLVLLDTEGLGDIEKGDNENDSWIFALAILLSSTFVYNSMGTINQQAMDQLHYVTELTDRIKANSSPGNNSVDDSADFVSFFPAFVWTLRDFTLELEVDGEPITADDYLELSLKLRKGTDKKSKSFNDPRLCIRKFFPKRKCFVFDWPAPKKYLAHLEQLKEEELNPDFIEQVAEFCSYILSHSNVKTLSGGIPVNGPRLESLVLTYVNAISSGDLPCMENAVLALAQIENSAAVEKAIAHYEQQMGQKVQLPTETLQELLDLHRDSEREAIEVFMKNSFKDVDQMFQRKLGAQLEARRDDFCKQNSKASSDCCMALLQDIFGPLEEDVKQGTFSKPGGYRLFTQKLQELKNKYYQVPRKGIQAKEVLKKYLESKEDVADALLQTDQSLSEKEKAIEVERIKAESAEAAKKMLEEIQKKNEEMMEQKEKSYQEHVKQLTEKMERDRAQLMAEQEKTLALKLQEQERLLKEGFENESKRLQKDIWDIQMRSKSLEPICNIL

T5: Flag-tagged guanylate-binding protein 1 (GBP1) (human) (UniProt P32455)
T5 sequence: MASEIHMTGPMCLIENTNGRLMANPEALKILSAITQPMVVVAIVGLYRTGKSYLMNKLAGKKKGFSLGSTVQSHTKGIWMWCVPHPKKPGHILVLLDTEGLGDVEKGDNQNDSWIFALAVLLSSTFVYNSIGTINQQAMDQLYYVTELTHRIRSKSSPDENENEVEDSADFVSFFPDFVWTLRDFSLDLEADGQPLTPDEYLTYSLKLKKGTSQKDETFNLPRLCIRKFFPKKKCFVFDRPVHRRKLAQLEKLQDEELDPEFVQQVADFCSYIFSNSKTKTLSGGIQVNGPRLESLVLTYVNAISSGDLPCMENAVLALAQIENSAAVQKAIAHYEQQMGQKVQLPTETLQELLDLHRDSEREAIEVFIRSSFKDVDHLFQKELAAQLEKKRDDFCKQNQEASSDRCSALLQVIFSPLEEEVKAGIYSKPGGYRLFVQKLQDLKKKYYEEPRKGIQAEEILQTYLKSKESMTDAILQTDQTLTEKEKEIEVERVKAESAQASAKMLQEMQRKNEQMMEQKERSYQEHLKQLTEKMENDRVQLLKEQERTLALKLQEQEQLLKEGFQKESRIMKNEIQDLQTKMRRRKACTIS

T6: Flag-GBP2^D103L/D108L (human) (UniProt P32456)
T6 sequence: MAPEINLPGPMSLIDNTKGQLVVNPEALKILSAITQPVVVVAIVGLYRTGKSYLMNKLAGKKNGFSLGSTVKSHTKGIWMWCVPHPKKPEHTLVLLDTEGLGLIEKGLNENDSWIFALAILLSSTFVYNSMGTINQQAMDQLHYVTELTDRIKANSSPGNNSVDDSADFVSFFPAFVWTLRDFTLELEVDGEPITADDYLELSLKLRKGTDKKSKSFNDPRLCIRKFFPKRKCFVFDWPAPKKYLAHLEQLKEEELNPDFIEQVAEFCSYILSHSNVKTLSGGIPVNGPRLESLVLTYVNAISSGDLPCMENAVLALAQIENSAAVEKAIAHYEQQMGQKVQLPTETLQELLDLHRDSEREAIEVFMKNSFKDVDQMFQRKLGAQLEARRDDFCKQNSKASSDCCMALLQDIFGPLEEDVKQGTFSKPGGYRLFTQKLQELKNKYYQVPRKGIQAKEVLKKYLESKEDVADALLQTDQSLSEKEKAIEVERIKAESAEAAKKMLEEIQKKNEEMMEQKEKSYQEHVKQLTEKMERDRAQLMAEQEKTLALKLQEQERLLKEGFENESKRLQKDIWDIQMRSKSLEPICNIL


Tests used:
[1] = target: T1, IFN-γ-induced endogenous GBP2 (human (endogenous in MDA-MB-231)); assay: co-IP; IFN-γ-treated MDA-MB-231 cell lysates, anti-GBP2 or anti-Drp1 antibody, Protein G-agarose; rabbit IgG as control
GST-tagged GBP2 (human) = target: T2, GST-tagged GBP2 (human); assay: pull-down; GST or GST-GBP2 bound to resin, incubated with MDA-MB-231 cell lysate overnight, washed with RIPA buffer; western blot with anti-Drp1; only the target purified
[2] = target: T3, Flag-tagged guanylate-binding protein 2 (GBP2) (human); assay: co-IP; anti-Flag antibody and Protein G-agarose on lysates of transfected breast cancer cells (MDA-MB-231); lysis buffer with 1.5% n-dodecyl-b-d-maltopyranoside, 4 °C overnight; western blot for Drp1
Flag-GBP2^K51A (human) = target: T4, Flag-GBP2^K51A (human); assay: as above
[3] = target: T5, Flag-tagged guanylate-binding protein 1 (GBP1) (human); assay: as above
[4] = target: T6, Flag-GBP2^D103L/D108L (human); assay: as above
[5] = target: dynamin-related protein 1 (Drp1), endogenous (human (endogenous in MDA-MB-231)) (UniProt O00429); assay: co-IP; IFN-γ-treated MDA-MB-231 cell lysates, anti-GBP2 or anti-Drp1 antibody, Protein G-agarose; rabbit IgG as control

binding [1]	binding (GST-tagged GBP2 (human))	binding [2]	binding (Flag-GBP2^K51A (human))	binding [3]	binding [4]	binding [5]	Molecule
binds	binds	binds	no binding	no binding	binds		dynamin-related protein 1 (Drp1), endogenous (from UniProt O00429 1-736)
						binds	IFN-γ-induced endogenous GBP2 (protein, UniProt P32456 1-591) MAPEINLPGPMSLIDNTKGQLVVNPEALKILSAITQPVVVVAIVGLYRTGKSYLMNKLAGKKNGFSLGSTVKSHTKGIWMWCVPHPKKPEHTLVLLDTEGLGDIEKGDNENDSWIFALAILLSSTFVYNSMGTINQQAMDQLHYVTELTDRIKANSSPGNNSVDDSADFVSFFPAFVWTLRDFTLELEVDGEPITADDYLELSLKLRKGTDKKSKSFNDPRLCIRKFFPKRKCFVFDWPAPKKYLAHLEQLKEEELNPDFIEQVAEFCSYILSHSNVKTLSGGIPVNGPRLESLVLTYVNAISSGDLPCMENAVLALAQIENSAAVEKAIAHYEQQMGQKVQLPTETLQELLDLHRDSEREAIEVFMKNSFKDVDQMFQRKLGAQLEARRDDFCKQNSKASSDCCMALLQDIFGPLEEDVKQGTFSKPGGYRLFTQKLQELKNKYYQVPRKGIQAKEVLKKYLESKEDVADALLQTDQSLSEKEKAIEVERIKAESAEAAKKMLEEIQKKNEEMMEQKEKSYQEHVKQLTEKMERDRAQLMAEQEKTLALKLQEQERLLKEGFENESKRLQKDIWDIQMRSKSLEPICNIL
